According to paper PMC4336329 (PLoS ONE, 2015):
About 2,200 (0.71%) of roughly 310,000 compounds showed an effect of 50% or more. Effects have a minus sign here. The list shows a part of the results.

Molecular target: human ether-à-go-go-related gene (hERG) potassium channel (human, UniProt Q12809)
Test: primary screen, population patch clamp on CHO cells stably expressing hERG

human ether-à-go-go-related gene (hERG) potassium channel, sequence (Q12809 whole entry, looked up): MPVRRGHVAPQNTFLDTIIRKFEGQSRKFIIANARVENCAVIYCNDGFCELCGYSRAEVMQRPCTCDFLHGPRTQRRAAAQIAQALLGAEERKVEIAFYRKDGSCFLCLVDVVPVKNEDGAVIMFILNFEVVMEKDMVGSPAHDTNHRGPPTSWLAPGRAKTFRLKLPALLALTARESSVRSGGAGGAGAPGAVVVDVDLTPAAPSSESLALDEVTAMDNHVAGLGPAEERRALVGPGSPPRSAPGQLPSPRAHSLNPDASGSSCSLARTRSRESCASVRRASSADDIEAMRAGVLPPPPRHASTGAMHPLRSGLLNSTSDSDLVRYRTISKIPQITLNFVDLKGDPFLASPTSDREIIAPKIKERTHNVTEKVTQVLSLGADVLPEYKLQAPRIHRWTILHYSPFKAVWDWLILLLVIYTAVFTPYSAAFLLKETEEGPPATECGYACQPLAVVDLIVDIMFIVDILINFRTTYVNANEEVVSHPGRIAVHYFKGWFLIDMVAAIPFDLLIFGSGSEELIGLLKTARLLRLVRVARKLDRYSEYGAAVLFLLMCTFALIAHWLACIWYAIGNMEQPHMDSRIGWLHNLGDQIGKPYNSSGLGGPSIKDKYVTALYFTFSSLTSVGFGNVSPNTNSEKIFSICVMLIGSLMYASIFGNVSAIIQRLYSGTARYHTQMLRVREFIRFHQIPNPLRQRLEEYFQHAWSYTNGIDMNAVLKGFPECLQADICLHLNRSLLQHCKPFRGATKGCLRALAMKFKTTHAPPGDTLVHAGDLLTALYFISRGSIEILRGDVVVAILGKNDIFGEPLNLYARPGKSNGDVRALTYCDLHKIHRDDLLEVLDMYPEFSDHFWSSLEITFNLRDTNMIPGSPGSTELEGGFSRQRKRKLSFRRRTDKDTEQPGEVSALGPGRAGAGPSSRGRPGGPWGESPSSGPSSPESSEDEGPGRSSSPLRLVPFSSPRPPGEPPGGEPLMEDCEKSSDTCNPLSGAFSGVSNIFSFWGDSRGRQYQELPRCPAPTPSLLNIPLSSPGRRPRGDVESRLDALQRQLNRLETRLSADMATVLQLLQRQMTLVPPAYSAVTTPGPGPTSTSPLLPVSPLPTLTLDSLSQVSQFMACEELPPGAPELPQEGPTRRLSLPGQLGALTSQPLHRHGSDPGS

SMILES | hERG current change (%, negative = inhibition) at 1uM [%]
COc1cccc(-c2nn(C)c3sc(C(=O)NCc4ccc(C)cc4)cc23)c1 | 8.72
O=C(CCc1ccccc1)NNC(=O)c1ccccn1 | 13.5
C=CCn1c(C)c(/C=C/c2cc[n+](C)cc2)c2ccccc21.[I-] | 2.44
Cc1noc(C)c1COc1ccccc1C(=O)NCCc1ccc(Cl)cc1 | 2.76
Cc1ccc2oc(-c3ccco3)cc(=O)c2c1 | 17.6
N#CC1=C(N)Oc2cc(O)ccc2C1c1cccnc1 (centres unmarked) | 17
O=C(O)c1ccc(COc2ccccc2/C=C2\NC(=O)N(Cc3ccccc3F)C2=O)cc1 | 9.5
CC(C)C(NS(=O)(=O)c1c(Cl)cccc1Cl)C(=O)OCC(=O)c1c[nH]c2ccccc12 (centres unmarked) | 7.79
O=C(Oc1ccc(Cl)cc1)c1ccc(N2CCOCC2)c([N+](=O)[O-])c1 | 1.31
CCCCCCCCCCCCOC1OC(CO)C(O)C(O)C1NC(C)=O (centres unmarked) | 4.7
CCOCc1c(C(=O)OCC(=O)NCc2ccc(F)cc2)oc2ccccc12 | -1.49
Cc1coc(C)c1C(=O)CC1(O)C(=O)N(CCc2ccccc2)c2ccccc21 (centres unmarked) | 10.8
CCN(CC)S(=O)(=O)c1ccc(NCc2ccccc2)nc1 | -0.48
CCSc1nc(N)c2c3c(sc2n1)CCC3 | -0.031
CCCC(=O)Nc1ccc(Cl)c(-c2nc3ncccc3o2)c1 | 13.7
Cc1ccc(NC(=O)CCNS(=O)(=O)c2ccc(Br)s2)cc1 | 14.5
COc1cccc(NC(=O)CSc2nc(N)cc(N)n2)c1 | 5.5
O=C(CN1C(=O)CC(c2ccco2)Sc2ccccc21)NCc1ccc2c(c1)OCO2 (centres unmarked) | -8.24
CCCN(CCC)C(=O)c1cc([N+](=O)[O-])cc2c1-c1ccc([N+](=O)[O-])cc1C2=C(C#N)C#N | 2.63
O=[N+]([O-])c1ccc(C[n+]2ccc(Cc3ccccc3)cc2)cc1.[Cl-] | 2.71
CCN(CC(=O)Nc1ccc(N2CCOCC2)cc1)CC(=O)NC(C)(C)C | 6.36
O=C(c1ccco1)N1CCN(C2CCCC2)CC1 | 11.6

SMILES | hERG current change (%, negative = inhibition) at 1uM [%]
CCc1nnc(SC(C)C(=O)Nc2nccs2)n1C (centres unmarked) | -2.11
O=C(CN1CCc2ccccc21)NN1CC(=O)N(c2ccc(Cl)cc2)CC1=O | 13.8
CSc1ccc(S(=O)(=O)N2CCC(C(=O)Nc3cccnc3)CC2)cc1 | -0.0764
COc1ccc(NC(=O)c2nc(C)c(C3(C)CC(c4ccccc4)=NO3)s2)cc1 (centres unmarked) | 7.07
CC(=O)Nc1ccc(OS(=O)(=O)c2ccc(Cl)cc2)cc1 | -1.62
O=c1c2oc3ccccc3c2ncn1Cc1cccc(Cl)c1 | 13.2
Cc1ccccc1NC(=O)NCc1ccc2c(c1)OCO2 | 8.1
COCCN(CC(=O)Nc1cccc(C)c1C)C(=O)Cc1cccs1 | 3.39
Nc1c(-c2ccc(Cl)cc2)cnn1-c1cc(C(F)(F)F)cc(C(F)(F)F)c1 | 9.14
NS(=O)(=O)c1ccc(CCNC(=O)CNC(=O)c2ccc(Oc3ccccc3)cc2)cc1 | 9.92
COc1cc2c(cc1OC)CN(Cc1ccc(C)s1)CC2 | -3.58
O=C(CSc1cccc2cccnc12)N/N=C/c1cccc(O)c1 | -0.494
CCCCn1nc2cc(C(=O)NCc3ccc(OC(F)(F)F)cc3)ccc2c1OC | -0.644
CS(=O)(=O)c1ccc(-c2nnc(NC(=O)c3cccc(N4C(=O)CCC4=O)c3)o2)cc1 | 5.75
COCCCN(C(=O)Cc1coc2cc(C)c(C)cc12)c1c(N)n(Cc2ccccc2)c(=O)[nH]c1=O | 10.8
CC(=O)c1cccc(N(CC(=O)NC2CCCCC2)C(=O)c2csnn2)c1 | 12
CCCCNC(=S)NC(=O)c1ccccc1Br | 8.34
Cc1nc(CN(C)Cc2nc(Cc3cccc(F)c3)no2)cs1 | -2.24
C#Cc1cccc(NC(=O)c2ccc3c(c2)C(=O)N(Cc2cccnc2)C3=O)c1 | 1.08
O=C(Nc1ccc(F)cc1)Nc1ccccc1C(=O)NCCN1CCNC1=O | 11.5
Cl.O=C(c1ccccc1)N1CCN(CC(O)COCC2CC=CCC2)CC1 (centres unmarked) | -10.6
COCCN(C(=O)CCCC(=O)Nc1ccccn1)C(C(=O)NC1CCCCC1)c1ccc(C)cc1 (centres unmarked) | 10.1
